# Source: the supplement of paper PMC8728848
# The list shows a part of the results.
# Key:
# Experiment in all cases: glycan array binding signal (z-score within array); higher = stronger binding
# Settings in all cases: glycan notation: IUPAC condensed, linker removed
# [1] = target: Fuc(a1-2)[Gal(a1-3)]Gal(b1-4)GlcNAc(b1-2)Man(a1-3)[Fuc(a1-2)[Gal(a1-3)]Gal(b1-4)GlcNAc(b1-2)Man(a1-6)]Man(b1-4)GlcNAc(b1-4)GlcNAc
# In short: (§1)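 Glycan array binding is given as a within-array Z-score, which can be read as non-binding when negative. The arrays, 3228 of them, came from the Consortium for Functional Glycomics database and were retained only where the protein sequence was available. Z-scores were averaged across arrays of the same protein sequence at different concentrations or buffers and across linkers.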
# [2] = target: Fuc(a1-2)[Gal(a1-3)]Gal(b1-4)GlcNAc(b1-2)Man(a1-3)[Fuc(a1-2)[Gal(a1-3)]Gal(b1-4)GlcNAc(b1-2)Man(a1-6)]Man(b1-4)GlcNAc(b1-4)[Fuc(a1-6)]GlcNAc
# In short: as §1
# [3] = target: Fuc(a1-2)[Gal(a1-3)]Gal(b1-4)GlcNAc(b1-3)GalNAc
# In short: as §1
# [4] = target: Fuc(a1-2)[Gal(a1-3)]Gal(b1-4)GlcNAc(b1-6)GalNAc
# In short: as §1
# [5] = target: Fuc(a1-2)[Gal(a1-3)]Gal(b1-4)[Fuc(a1-3)]Glc
# In short: as §1
# [6] = target: Fuc(a1-2)[Gal(a1-3)]Gal(b1-4)[Fuc(a1-3)]GlcNAc
# In short: as §1
# [7] = target: Fuc(a1-2)[Gal(a1-3)]Gal(b1-4)[Fuc(a1-3)]GlcNAc(b1-3)GalNAc
# In short: as §1
# [8] = target: Fuc(a1-2)[Gal(a1-4)]Gal(b1-4)GlcNAc
# In short: as §1
# [9] = target: Fuc(a1-2)[GalNAc(a1-3)]Gal
# In short: as §1
# [10] = target: Fuc(a1-2)[GalNAc(a1-3)]Gal(b1-3)GalNAc(a1-3)[Fuc(a1-2)]Gal(b1-4)GlcNAc
# In short: as §1
# [11] = target: Fuc(a1-2)[GalNAc(a1-3)]Gal(b1-3)GalNAc(b1-3)Gal(a1-4)Gal(b1-4)Glc
# In short: as §1
# [12] = target: Fuc(a1-2)[GalNAc(a1-3)]Gal(b1-3)GlcNAc
# In short: as §1
# [13] = target: Fuc(a1-2)[GalNAc(a1-3)]Gal(b1-3)GlcNAc(b1-2)Man(a1-3)[Fuc(a1-2)[GalNAc(a1-3)]Gal(b1-3)GlcNAc(b1-2)Man(a1-6)]Man(b1-4)GlcNAc(b1-4)GlcNAc
# In short: as §1
# [14] = target: Fuc(a1-2)[GalNAc(a1-3)]Gal(b1-3)GlcNAc(b1-2)Man(a1-3)[Fuc(a1-2)[GalNAc(a1-3)]Gal(b1-3)GlcNAc(b1-2)Man(a1-6)]Man(b1-4)GlcNAc(b1-4)[Fuc(a1-6)]GlcNAc
# In short: as §1
# [15] = target: Fuc(a1-2)[GalNAc(a1-3)]Gal(b1-3)GlcNAc(b1-3)GalNAc
# In short: as §1
# [16] = target: Fuc(a1-2)[GalNAc(a1-3)]Gal(b1-3)GlcNAc(b1-6)GalNAc
# In short: as §1
# [17] = target: Fuc(a1-2)[GalNAc(a1-3)]Gal(b1-4)Glc
# In short: as §1
# [18] = target: Fuc(a1-2)[GalNAc(a1-3)]Gal(b1-4)GlcNAc
# In short: as §1
# [19] = target: Fuc(a1-2)[GalNAc(a1-3)]Gal(b1-4)GlcNAc(b1-2)Man
# In short: as §1
# [20] = target: Fuc(a1-2)[GalNAc(a1-3)]Gal(b1-4)GlcNAc(b1-2)Man(a1-3)[Fuc(a1-2)[GalNAc(a1-3)]Gal(b1-4)GlcNAc(b1-2)Man(a1-6)]Man(b1-4)GlcNAc(b1-4)GlcNAc
# In short: as §1
# [21] = target: Fuc(a1-2)[GalNAc(a1-3)]Gal(b1-4)GlcNAc(b1-2)Man(a1-3)[Fuc(a1-2)[GalNAc(a1-3)]Gal(b1-4)GlcNAc(b1-2)Man(a1-6)]Man(b1-4)GlcNAc(b1-4)[Fuc(a1-6)]GlcNAc
# In short: as §1
# [22] = target: Fuc(a1-2)[GalNAc(a1-3)]Gal(b1-4)GlcNAc(b1-3)Gal(b1-4)GlcNAc
# In short: as §1
# [23] = target: Fuc(a1-2)[GalNAc(a1-3)]Gal(b1-4)GlcNAc(b1-3)Gal(b1-4)GlcNAc(b1-3)Gal(b1-4)GlcNAc
# In short: as §1
# [24] = target: Fuc(a1-2)[GalNAc(a1-3)]Gal(b1-4)GlcNAc(b1-3)GalNAc
# In short: as §1
# [25] = target: Fuc(a1-2)[GalNAc(a1-3)]Gal(b1-4)GlcNAc(b1-3)[Fuc(a1-2)[GalNAc(a1-3)]Gal(b1-4)GlcNAc(b1-6)]GalNAc
# In short: as §1
# [26] = target: Fuc(a1-2)[GalNAc(a1-3)]Gal(b1-4)GlcNAc(b1-6)GalNAc
# In short: as §1
# [27] = target: Fuc(a1-2)[GalNAc(a1-3)]Gal(b1-4)[Fuc(a1-3)]GlcNAc
# In short: as §1
# [28] = target: Fuc(a1-2)[GalNAc(a1-3)]Gal(b1-4)[Fuc(a1-3)]GlcNAc(b1-3)GalNAc
# In short: as §1
# [29] = target: Fuc(a1-2)[GalNAc(a1-4)]Gal(b1-4)GlcNAc
# In short: as §1
# [30] = target: Fuc(a1-2)[GalNAc(b1-3)]Gal
# In short: as §1
binder,measurement,setting,value
"ECL (Erythrina cristagalli), Q6YD91 (protein) VETISFSFSEFEPGNNDLTLQGAAIITQSGVLQLTKINQNGMPAWDSTGRTLYTKPVHIWDMTTGTVASFETRFSFSIEQPYTRPLPADGLVFFMGPTKSKPAQGYGYLGVFNNSKQDNSYQTLAVEFDTFSNPWDPPQVPHIGIDVNSIRSIKTQPFQLDNGQVANVVIKYDASSKILLAVLVYPSSGAIYTIAEIVDVKQVLPEWVDVGLSGATGAQRDAAETHDVYSWSFHASLPETND",glycan array binding signal (z-score),[1],-0.175
same,glycan array binding signal (z-score),[2],-0.114
same,glycan array binding signal (z-score),[3],-0.135
same,glycan array binding signal (z-score),[4],0.01
same,glycan array binding signal (z-score),[5],-0.279
same,glycan array binding signal (z-score),[6],-0.134
same,glycan array binding signal (z-score),[7],1.39
same,glycan array binding signal (z-score),[8],-0.029
same,glycan array binding signal (z-score),[9],-0.343
same,glycan array binding signal (z-score),[10],-0.127
same,glycan array binding signal (z-score),[11],-0.336
same,glycan array binding signal (z-score),[12],-0.253
same,glycan array binding signal (z-score),[13],-0.293
same,glycan array binding signal (z-score),[14],-0.289
same,glycan array binding signal (z-score),[15],0.102
same,glycan array binding signal (z-score),[16],-0.435
same,glycan array binding signal (z-score),[17],-0.283
same,glycan array binding signal (z-score),[18],-0.363
same,glycan array binding signal (z-score),[19],-0.227
same,glycan array binding signal (z-score),[20],-0.306
same,glycan array binding signal (z-score),[21],-0.274
same,glycan array binding signal (z-score),[22],-0.259
same,glycan array binding signal (z-score),[23],0.176
same,glycan array binding signal (z-score),[24],-0.17
same,glycan array binding signal (z-score),[25],-0.356
same,glycan array binding signal (z-score),[26],-0.404
same,glycan array binding signal (z-score),[27],-0.1
same,glycan array binding signal (z-score),[28],0.775
same,glycan array binding signal (z-score),[29],-0.259
same,glycan array binding signal (z-score),[30],-0.064
